# Experimental data taken from a collection of fitness landscapes (doi:10.1126/science.1257360).
# The list shows a part of the results.
# B1: PhoQ; a variant is named by its letters at X, in order, P23837 (parent)
# chain: MKKLLRLFFPLSLRVRFLLATAAVVLVLSLAYGMVALIGYSVSFDKTTFRLLRGESNLFYTLAKWENNKLHVELPENIDKQSPTMTLIYDENGQLLWAQRDVPWLMKMIQPDWLKSNGFHEIEADVNDTSLLLSGDHSIQQQLQEVREDDDDAEMTHSVAVNVYPATSRMPKLTIVVVDTIPVELKSSYMVWSWFIYVLSANLLLVIPLLWVAAWWSLRPIEALAKEVRELEEHNRELLNPATTRELTSLVRNLNRLLKSERERYDKYRTTLTDLTHSLKTPLXXLQXXLRSLRSEKMSVSDAEPVMLEQISRISQQIGYYLHRASMRGGTLLSRELHPVAPLLDNLTSALNKVYQRKGVNISLDISPEISFVGEQNDFVEVMGNVLDNACKYCLEFVEISARQTDEHLYIVVEDDGPGIPLSKREVIFDRGQRVDTLRPGQGVGLAVAREITEQYEGKIVAGESMLGGARMEVIFGRQHSAPKDE
# Variants of: B1
# Test: enrichment ratio after two sorts for PhoP signalling (ratio (wild type AVST 3.29)); higher = more functional
# Conditions: with PhoP (E. coli)
row,Variant,enrichment ratio
1,FHAI,≤ 0.25
2,HLIF,≤ 0.25
3,YYHE,≤ 0.25
4,VEWE,≤ 0.25
5,YNGD,≤ 0.25
6,APHH,≤ 0.25
7,HMHW,≤ 0.25
8,PWTN,≤ 0.25
9,KCKD,≤ 0.25
10,DYFG,≤ 0.25
11,YDKV,≤ 0.25
12,MESW,≤ 0.25
13,NNIM,≤ 0.25
14,FSYL,≤ 0.25
15,EKLC,≤ 0.25
16,AWNM,≤ 0.25
17,WKAC,≤ 0.25
18,PMHM,≤ 0.25
19,EPGM,≤ 0.25
20,PPNN,≤ 0.25
21,HRFT,≤ 0.25
22,NNTS,≤ 0.25
23,LCNF,≤ 0.25
24,SVIP,≤ 0.25

row,Variant,enrichment ratio
1,YCSY,≤ 0.25
2,FVAK,≤ 0.25
3,GTIK,≤ 0.25
4,KNSE,≤ 0.25
5,SPVK,≤ 0.25
6,NTAL,≤ 0.25
7,TSVF,0.681
8,PMGI,≤ 0.25
9,YQEV,≤ 0.25
10,YEHV,≤ 0.25
11,LATL,≤ 0.25
12,IVRK,≤ 0.25
13,VVMA,≤ 0.25
14,INNK,≤ 0.25
15,AKGW,≤ 0.25
16,PAAL,≤ 0.25
17,GESG,10.9
18,FTPA,0.426
19,VQAF,≤ 0.25
20,GNVR,≤ 0.25
21,TRRC,≤ 0.25
22,ERDR,≤ 0.25
23,SLCF,5.27
24,NYVR,0.286

row,Variant,enrichment ratio
1,PTSW,≤ 0.25
2,VIEP,≤ 0.25
3,SWWL,≤ 0.25
4,TQPE,≤ 0.25
5,LYIT,≤ 0.25
6,QNAG,≤ 0.25
7,FRMS,≤ 0.25
8,KELK,≤ 0.25
9,WCCN,≤ 0.25
10,HQRY,≤ 0.25
11,SVNG,12.5
12,YSNA,≤ 0.25
13,ESIE,≤ 0.25
14,GDLK,≤ 0.25
15,HPHV,≤ 0.25
16,TQAT,12.7
17,GAKF,≤ 0.25
18,GTTE,≤ 0.25
19,ACNS,≤ 0.25
20,FFSG,≤ 0.25
21,MLVY,≤ 0.25
22,EQVH,≤ 0.25
23,LTQG,≤ 0.25
24,RHWW,≤ 0.25

row,Variant,enrichment ratio
1,GVVH,≤ 0.25
2,QESG,6.03
3,DRCV,≤ 0.25
4,IPVF,≤ 0.25
5,LTMR,≤ 0.25
6,YNET,≤ 0.25
7,QPHT,≤ 0.25
8,DLWM,≤ 0.25
9,FFLN,≤ 0.25
10,YEMY,≤ 0.25
11,YSFE,≤ 0.25
12,PMTA,≤ 0.25
13,EPTV,≤ 0.25
14,HRHL,≤ 0.25
15,GPSN,≤ 0.25
16,YPPL,≤ 0.25
17,QGPP,≤ 0.25
18,TCNW,≤ 0.25
19,PPAA,≤ 0.25
20,YMAS,≤ 0.25
21,DVGN,≤ 0.25
22,QFYC,≤ 0.25
23,YKKF,≤ 0.25
24,RIHD,≤ 0.25

row,Variant,enrichment ratio
1,FFPE,≤ 0.25
2,EYQD,≤ 0.25
3,SKQI,≤ 0.25
4,FENI,≤ 0.25
5,DYDV,≤ 0.25
6,VDKQ,≤ 0.25
7,YPPP,≤ 0.25
8,EISP,≤ 0.25
9,LMLH,≤ 0.25
10,RNPL,≤ 0.25
11,IKDT,≤ 0.25
12,SKPM,≤ 0.25
13,EFGS,≤ 0.25
14,SRRI,≤ 0.25
15,GYEK,≤ 0.25
16,MKAI,≤ 0.25
17,TPQF,≤ 0.25
18,MPDC,≤ 0.25
19,PPRR,≤ 0.25
20,VMFN,≤ 0.25
21,PLTE,≤ 0.25
22,IHFA,≤ 0.25
23,RKYA,≤ 0.25
24,KPRG,≤ 0.25

row,Variant,enrichment ratio
1,VCTM,23
2,SHAQ,≤ 0.25
3,TIGW,1.07
4,NDLE,≤ 0.25
5,DKLR,≤ 0.25
6,HSSL,0.798
7,KNYN,≤ 0.25
8,AQLA,19
9,ITGI,≤ 0.25
10,WPCT,≤ 0.25
11,MTDA,≤ 0.25
12,LLEN,≤ 0.25
13,FVMF,2.56
14,MQND,≤ 0.25
15,LCKM,≤ 0.25
16,IPCY,≤ 0.25
17,DFAS,≤ 0.25
18,NIFT,≤ 0.25
19,LMCS,≤ 0.25
20,KIVL,≤ 0.25
21,SGTP,≤ 0.25
22,EHVF,≤ 0.25
23,CSRP,≤ 0.25
24,LSES,≤ 0.25

row,Variant,enrichment ratio
1,PWDA,≤ 0.25
2,YLMK,≤ 0.25
3,LADS,1.25
4,MNFP,≤ 0.25
5,TGAV,17.1
6,MKDL,≤ 0.25
7,HAFK,≤ 0.25
8,MPLP,≤ 0.25
9,KATA,≤ 0.25
10,HQPY,≤ 0.25
11,ALVN,13.7
12,AMNM,≤ 0.25
13,FEPQ,≤ 0.25
14,SFMC,≤ 0.25
15,GESF,0.55
16,VTKI,≤ 0.25
17,RQYK,≤ 0.25
18,SHLV,6.04
19,IGSD,≤ 0.25
20,PSSA,≤ 0.25
21,SSQM,3.62
22,AWVS,≤ 0.25
23,KIAV,≤ 0.25
24,GQKR,≤ 0.25

row,Variant,enrichment ratio
1,NVRV,≤ 0.25
2,THSV,7.68
3,PSYN,0.446
4,YSVW,≤ 0.25
5,TVMV,5.14
6,HCLF,≤ 0.25
7,HPMM,≤ 0.25
8,WRAY,≤ 0.25
9,FIYG,≤ 0.25
10,PRYR,≤ 0.25
11,SITG,16.2
12,TDQV,4.18
13,FLRM,≤ 0.25
14,RMVT,≤ 0.25
15,WSGK,≤ 0.25
16,RWSC,≤ 0.25
17,QNGM,16
18,PNYG,≤ 0.25
19,FFPS,≤ 0.25
20,TSGL,7.2
21,MRKR,≤ 0.25
22,GCSM,5
23,EGGH,≤ 0.25
24,NTAH,≤ 0.25

row,Variant,enrichment ratio
1,VMRR,≤ 0.25
2,PSHY,0.663
3,WTVT,≤ 0.25
4,PYKP,≤ 0.25
5,WVRT,≤ 0.25
6,WNDF,≤ 0.25
7,AQIM,2.44
8,HGPR,≤ 0.25
9,TAMI,7.97
10,VYSL,≤ 0.25
11,RMHS,≤ 0.25
12,YPEP,≤ 0.25
13,EQNH,≤ 0.25
14,TKMF,11.5
15,GKNT,≤ 0.25
16,KIRP,≤ 0.25
17,IIGS,≤ 0.25
18,HDVN,≤ 0.25
19,ACNG,≤ 0.25
20,MKDT,≤ 0.25
21,DWKP,≤ 0.25
22,KAFC,≤ 0.25
23,RKFD,≤ 0.25
24,NIKR,≤ 0.25

row,Variant,enrichment ratio
1,PNTG,≤ 0.25
2,YFFH,≤ 0.25
3,GYRN,≤ 0.25
4,DALA,≤ 0.25
5,PDVW,≤ 0.25
6,VSFP,≤ 0.25
7,SAHA,≤ 0.25
8,MQPW,≤ 0.25
9,FMPQ,≤ 0.25
10,MHID,≤ 0.25
11,IDSF,≤ 0.25
12,APNK,≤ 0.25
13,SGEC,≤ 0.25
14,GFMI,≤ 0.25
15,ERDN,≤ 0.25
16,FGCS,≤ 0.25
17,NTMS,≤ 0.25
18,KNCG,≤ 0.25
19,HWPT,≤ 0.25
20,TCAV,13.4
21,DTMK,≤ 0.25
22,DHNY,≤ 0.25
23,HSAI,≤ 0.25
24,FQRQ,≤ 0.25

row,Variant,enrichment ratio
1,TCTA,11.4
2,EQRI,≤ 0.25
3,SQYF,0.646
4,HLVK,≤ 0.25
5,TVLT,0.749
6,ELFE,≤ 0.25
7,GYKQ,≤ 0.25
8,MGDA,≤ 0.25
9,RYYQ,≤ 0.25
10,FPMP,≤ 0.25
11,VNGN,≤ 0.25
12,ETLL,2.25
13,PRLA,≤ 0.25
14,MHIK,≤ 0.25
15,SKFY,≤ 0.25
16,SMMK,5.2
17,WFYI,≤ 0.25
18,AQRL,≤ 0.25
19,LIPT,≤ 0.25
20,WEFP,≤ 0.25
21,KPNF,≤ 0.25
22,IWNG,≤ 0.25
23,YAEL,≤ 0.25
24,PTKK,≤ 0.25

row,Variant,enrichment ratio
1,WIKI,≤ 0.25
2,VDFP,≤ 0.25
3,SDMI,3.86
4,SWVQ,≤ 0.25
5,IPET,≤ 0.25
6,STCY,8.93
7,MLLQ,≤ 0.25
8,LFWE,≤ 0.25
9,PPFC,≤ 0.25
10,LIKL,≤ 0.25
11,PGFH,≤ 0.25
12,APTG,≤ 0.25
13,YNGY,≤ 0.25
14,SISH,10.5
15,PTRF,≤ 0.25
16,MKYC,≤ 0.25
17,EVAN,≤ 0.25
18,VKSM,≤ 0.25
19,FIGR,≤ 0.25
20,HYTA,≤ 0.25
21,PHHY,≤ 0.25
22,LLLE,≤ 0.25
23,WQWW,≤ 0.25
24,PLQG,≤ 0.25

row,Variant,enrichment ratio
1,KLCD,≤ 0.25
2,LDTF,≤ 0.25
3,HYST,≤ 0.25
4,SSRW,≤ 0.25
5,NTAF,≤ 0.25
6,FDGK,≤ 0.25
7,NEFK,≤ 0.25
8,TKCG,6.42
9,LLLI,≤ 0.25
10,LQKT,≤ 0.25
11,TMTC,13.5
12,MSHP,≤ 0.25
13,HYIH,≤ 0.25
14,FRKI,≤ 0.25
15,RIFA,≤ 0.25
16,NYAY,≤ 0.25
17,LDRS,≤ 0.25
18,RMPH,≤ 0.25
